The supplement of paper PMC10338343
± gives the standard deviation. Whole data set: some 3,700 sequences, median “pre-steady-state target cleavage rate” near 0.02, cut for the highest 2% near 0.23. The list shows a part of the results, in another mix than the full data.

Test system: MILI (PIWIL2) piRISC loaded with Kctd7 piRNA (26 nt)
Test: pre-steady-state target cleavage rate (min^-1); MIWI and MILI are mouse PIWI proteins and EfPiwi is from a freshwater sponge; tags in brackets are library labels; higher = faster piRNA-guided slicing of the target
Details: guide: Kctd7 piRNA 5'p-UGUUAAUCUCUCAGAGAAGGUGACAG; auxiliary factor: 500 nM mouse GTSF1
Procedure, shortened: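 In HEPES–potassium acetate buffer at 33 °C, […] transcribed, DNA-blocked target RNA library was mixed with 1 nM active affinity-purified piRISC carrying one synthetic guide, with or without 500 nM GTSF1 partner protein, for 0–8 or 0–960 min. Uncleaved targets were sequenced and normalised to depth and to weakly complementary targets; three trials were pooled and k3 was capped at 0.0001 min^-1. The pre-steady-state cleavage rate followed from a burst-and-steady-state fit.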
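Note: 1 nM active piRISC with 0.1 nM target library at 33 °C single turnover.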

Sequence	pre-steady-state target cleavage rate
UAGUGUGUCACGUUCUCUCAGAGAUUAACA	0.0411 ± 0.0058
UAGUGAGUCACCUUCUCUGACUGAUUAACA	0.00608 ± 0.0039
UAGUGACAGUCCUUCUCGGAGAGAUUAACA	0.0241 ± 0.0054
UAGUGACAGACCUUCUCUGUGAGAUAAACA	0.0102 ± 0.0046
UAGUGACAGACUUUCUCUGAGAGAUUAACA	0.0879 ± 0.0072
UAGUGACAGUGCUUCUCUGAGAGAUUAAGCA	0.00719 ± 0.003
UAGUGACUCACCUUCUCUGAGACUAAUUGA	< 0.0001
UAGUGACAGUGGAUCUCUGAGAGAUUAACA [g2:g17:cont:t1A]	0.00287 ± 0.0017
UAGUGAGUCUCCUUCUCUGAGAGAUUAUGA	0.00809 ± 0.0046
UAGUCUGUCAGCUUCUCUGAGACAUUAACA	0.0133 ± 0.0023
UAGUGACAGACCUUCUCUGAGAGAUUACACA	0.0919 ± 0.02
UAGUCUGUCACCUUCUCUGAGAGAUUAACU [g2:g26:cont:t1U]	0.244 ± 0.026
UAGUGACAGACCUUCAGUGAGAGAUUAACA	0.0256 ± 0.0089
UAGUGACAGUGCAUCUCUGAGAGAUUAACA	0.00598 ± 0.0027
UAGUGACUCACCUUCACUGUGAGAUUAACA	0.041 ± 0.0056
UAGUGUGUCACCUUCUGUGAGAGAUUUUGA	0.00564 ± 0.0044
UAGUCUGUCACCUUCUCAGAGAGAUUAACA	0.177 ± 0.019
UAGUGACAGACCUUCACUGACAGAUUAACA	0.0267 ± 0.013
UAGUGACAGUGGAUCACUGAGAGAUUAUCA	< 0.0001
UAGUCUCUCACCUUCUCUGAGAGAAUAACA	0.0817 ± 0.019
UAGUGUGUCACCUUCACAGAGAGAUUAACA	0.0868 ± 0.0081
UAGUGAGUCACCUUCUCUGAGGAGAUUAACA	0.0247 ± 0.011
UAGUGACUCUCCUUCUCUGAGAGAUUAACA	0.131 ± 0.013

Sequence	pre-steady-state target cleavage rate
UAGUGAGUCAGGUUCUCUGAGAGAUUAACA	0.113 ± 0.0081
UAGUCUGUCACCUUCUGAGAGAGAUUUUGA	0.0143 ± 0.0076
UAGUGAGUCACCAUCUCUCAGAGAUUAACA	0.045 ± 0.01
UAGUGAGUCACCUUCUGUGAGAGAUUAUGA	0.02 ± 0.0074
UAGUGAGUCACCUUGUCUGAGAGAUUUACA	0.0249 ± 0.012
UAGUCUAUCACCUUCUCUGAGAGAUUAACA	0.19 ± 0.015
UAGUGACAGUGCUCUCUCUGAGAGAUUAACA	0.0146 ± 0.0033
UAGUCAGUCACGUUCUCUGAGAGAUUAACA	0.199 ± 0.0078
UAGUGUCUCAGCUUCUCUGAGAGAUUAACA	0.162 ± 0.018
UAGUGUGUCACCUUCUCUCAGACAUUAACA	0.0267 ± 0.0093
UAGUCUGUCACCUAGACUGAGAGAUUAACA	0.0691 ± 0.004
UAGUGACAGACCUGUCUCUGAGAGAUUAACA	0.0606 ± 0.0084
UAGUGACAGUGCUACUGUGAGAGAUUAACA	0.00417 ± 0.0017
UAGUGACAGUGCUUCAGUGAGAGAUUAACA	0.00976 ± 0.0039
UAGUGUGUCAGCUUCACUGAGAGAUUAACA	0.12 ± 0.0093
UAGUGACAGUGGUUCUCUGAGAGAUUAACC [g2:g18:cont:t1C]	0.00642 ± 0.0014
UAGUCUGAGUCCUUCUCUGAGAGAUUAAGA	0.0185 ± 0.0054
UAGUGACUCACCUUCGUCUGAGAGAUUAACA	0.0458 ± 0.0089
UAGUGACACACUCUUCUCUGAGAGAUUAACA	0.127 ± 0.018
UAGUCUGUCACCUACUCUGAGAGAUUAAGA	0.0796 ± 0.014
UAGUGUGUGACCUUCUCUGUGAGAUUAACA	0.0483 ± 0.007
UAGUGAGUCACCUGUCUCUGAGAGAUUAACA	0.213 ± 0.018
